Measurements reported in the supplement of paper PMC10369915.
Some of the results follow. No stated cut-off is given here; in the data, active = 3.2 or more and inactive = the rest. The signal is at background level for most entries.

target: SHP2 C-SH2 domain E139D; assay: enrichment score (SH2-bound / input frequency) (ratio); bacterial display of known human phosphotyrosine sites (pTyr-Var adds point mutants) read by sequencing; higher = stronger binding; tyrosines were phosphorylated by kinases first; conditions: peptide library: Human pTyr
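Further: displayed peptides selected on beads carrying the immobilized SH2 domain, with library peptides lacking any tyrosine serving as negative controls.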

Enrichment score, inactive:
MKRVGFQYEGTYKWV [G6PD_HUMAN_503] 1.86
MKRVGFQYEGTAKWV [G6PD_HUMAN_503_YA] 1.1
DASSQDCYDIPRAFP [GAB1_HUMAN_406] 0.863
ETDNEDVYTFKTPSN [GAB2_HUMAN_293] 1.16
EPRLSAEYEKVELPS [AKA12_HUMAN_374] 0.565
DIKEPVQYFNSVEEV [GARE1_HUMAN_105] 1.16
DVSLDRGYTSDSEVA [GBF1_HUMAN_1316_YA] 0.823
GNSAEEYYENVPCKA [GCSAM_HUMAN_107] 1.07
AQDKAESYSLISMKG [AKAP3_HUMAN_404] 0.627
ELDSKLNYKPPPQKS [GDIR2_HUMAN_24] 1.03
TDGLGLSYLSSHIAN [GELS_HUMAN_409] 1.06
VPVDPATYGQFYGGD [GELS_HUMAN_465] 0.582
ALGGKAAYRTSPRLK [GELS_HUMAN_651] 1.28
GGQKSFLYSELSNKS [AKAP4_HUMAN_303] 0.825
KQATTNVYQVQTGSE [GIT2_HUMAN_484] 0.826
KDCGSQKYAYFNGCS [GJA1_HUMAN_265] 1.21

Enrichment score, active:
AFLQLLKYIPPKAKS [AGTR1_HUMAN_319_YA] 3.31

target: SHP2 C-SH2 domain wild-type; assay: as above; conditions: peptide library: Human pTyr

Enrichment score, active:
AFLQLLKYIPPKAKS [AGTR1_HUMAN_319_YA] 3.61

Enrichment score, inactive:
MKRVGFQYEGTYKWV [G6PD_HUMAN_503] 1.69
MKRVGFQYEGTAKWV [G6PD_HUMAN_503_YA] 0.985
DASSQDCYDIPRAFP [GAB1_HUMAN_406] 0.814
ETDNEDVYTFKTPSN [GAB2_HUMAN_293] 0.865
EPRLSAEYEKVELPS [AKA12_HUMAN_374] 0.582
DIKEPVQYFNSVEEV [GARE1_HUMAN_105] 0.899
DVSLDRGYTSDSEVA [GBF1_HUMAN_1316_YA] 0.558
GNSAEEYYENVPCKA [GCSAM_HUMAN_107] 0.865
AQDKAESYSLISMKG [AKAP3_HUMAN_404] 1.58
ELDSKLNYKPPPQKS [GDIR2_HUMAN_24] 0.872
TDGLGLSYLSSHIAN [GELS_HUMAN_409] 0.913
VPVDPATYGQFYGGD [GELS_HUMAN_465] 0.574
ALGGKAAYRTSPRLK [GELS_HUMAN_651] 1.46
GGQKSFLYSELSNKS [AKAP4_HUMAN_303] 0.633
KQATTNVYQVQTGSE [GIT2_HUMAN_484] 0.637
KDCGSQKYAYFNGCS [GJA1_HUMAN_265] 1.72

target: SHP2 N-SH2 domain L43F; assay: as above; conditions: peptide library: Human pTyr

Enrichment score, active:
AFLQLLKYIPPKAKS [AGTR1_HUMAN_319_YA] 3.48

Enrichment score, inactive:
MKRVGFQYEGTYKWV [G6PD_HUMAN_503] 1.77
MKRVGFQYEGTAKWV [G6PD_HUMAN_503_YA] 1.16
DASSQDCYDIPRAFP [GAB1_HUMAN_406] 0.862
ETDNEDVYTFKTPSN [GAB2_HUMAN_293] 1.03
EPRLSAEYEKVELPS [AKA12_HUMAN_374] 0.676
DIKEPVQYFNSVEEV [GARE1_HUMAN_105] 0.858
DVSLDRGYTSDSEVA [GBF1_HUMAN_1316_YA] 0.658
GNSAEEYYENVPCKA [GCSAM_HUMAN_107] 0.834
AQDKAESYSLISMKG [AKAP3_HUMAN_404] 0.624
ELDSKLNYKPPPQKS [GDIR2_HUMAN_24] 0.941
TDGLGLSYLSSHIAN [GELS_HUMAN_409] 0.91
VPVDPATYGQFYGGD [GELS_HUMAN_465] 0.664
ALGGKAAYRTSPRLK [GELS_HUMAN_651] 1.24
GGQKSFLYSELSNKS [AKAP4_HUMAN_303] 0.693
KQATTNVYQVQTGSE [GIT2_HUMAN_484] 0.811
KDCGSQKYAYFNGCS [GJA1_HUMAN_265] 1.41

target: SHP2 N-SH2 domain T42A; assay: as above; conditions: peptide library: Human pTyr

Enrichment score, inactive:
MKRVGFQYEGTYKWV [G6PD_HUMAN_503] 1.81
MKRVGFQYEGTAKWV [G6PD_HUMAN_503_YA] 1.2
DASSQDCYDIPRAFP [GAB1_HUMAN_406] 0.902
ETDNEDVYTFKTPSN [GAB2_HUMAN_293] 0.778
EPRLSAEYEKVELPS [AKA12_HUMAN_374] 0.715
DIKEPVQYFNSVEEV [GARE1_HUMAN_105] 0.853
DVSLDRGYTSDSEVA [GBF1_HUMAN_1316_YA] 0.672
GNSAEEYYENVPCKA [GCSAM_HUMAN_107] 1.02
AQDKAESYSLISMKG [AKAP3_HUMAN_404] 0.6
ELDSKLNYKPPPQKS [GDIR2_HUMAN_24] 0.896
TDGLGLSYLSSHIAN [GELS_HUMAN_409] 0.969
VPVDPATYGQFYGGD [GELS_HUMAN_465] 0.534
ALGGKAAYRTSPRLK [GELS_HUMAN_651] 1.53
GGQKSFLYSELSNKS [AKAP4_HUMAN_303] 0.802
KQATTNVYQVQTGSE [GIT2_HUMAN_484] 0.699
KDCGSQKYAYFNGCS [GJA1_HUMAN_265] 1.07

Enrichment score, active:
AFLQLLKYIPPKAKS [AGTR1_HUMAN_319_YA] 3.86

target: SHP2 N-SH2 domain T52S; assay: as above; conditions: peptide library: Human pTyr

Enrichment score, inactive:
MKRVGFQYEGTYKWV [G6PD_HUMAN_503] 1.7
MKRVGFQYEGTAKWV [G6PD_HUMAN_503_YA] 1
DASSQDCYDIPRAFP [GAB1_HUMAN_406] 0.952
ETDNEDVYTFKTPSN [GAB2_HUMAN_293] 1.04
EPRLSAEYEKVELPS [AKA12_HUMAN_374] 0.757
DIKEPVQYFNSVEEV [GARE1_HUMAN_105] 1.02
DVSLDRGYTSDSEVA [GBF1_HUMAN_1316_YA] 0.848
GNSAEEYYENVPCKA [GCSAM_HUMAN_107] 0.946
AQDKAESYSLISMKG [AKAP3_HUMAN_404] 0.679
ELDSKLNYKPPPQKS [GDIR2_HUMAN_24] 0.914
TDGLGLSYLSSHIAN [GELS_HUMAN_409] 1.01
VPVDPATYGQFYGGD [GELS_HUMAN_465] 0.593
ALGGKAAYRTSPRLK [GELS_HUMAN_651] 1.37
GGQKSFLYSELSNKS [AKAP4_HUMAN_303] 1.01
KQATTNVYQVQTGSE [GIT2_HUMAN_484] 0.657
KDCGSQKYAYFNGCS [GJA1_HUMAN_265] 1.25

Enrichment score, active:
AFLQLLKYIPPKAKS [AGTR1_HUMAN_319_YA] 3.49

target: SHP2 N-SH2 domain wild-type; assay: as above; conditions: peptide library: Human pTyr

Enrichment score, active:
AFLQLLKYIPPKAKS [AGTR1_HUMAN_319_YA] 4.53

Enrichment score, inactive:
MKRVGFQYEGTYKWV [G6PD_HUMAN_503] 2.09
MKRVGFQYEGTAKWV [G6PD_HUMAN_503_YA] 1.36
DASSQDCYDIPRAFP [GAB1_HUMAN_406] 0.924
ETDNEDVYTFKTPSN [GAB2_HUMAN_293] 1.27
EPRLSAEYEKVELPS [AKA12_HUMAN_374] 0.604
DIKEPVQYFNSVEEV [GARE1_HUMAN_105] 1.17
DVSLDRGYTSDSEVA [GBF1_HUMAN_1316_YA] 0.702
GNSAEEYYENVPCKA [GCSAM_HUMAN_107] 0.899
AQDKAESYSLISMKG [AKAP3_HUMAN_404] 0.515
ELDSKLNYKPPPQKS [GDIR2_HUMAN_24] 1.17
TDGLGLSYLSSHIAN [GELS_HUMAN_409] 1.05
VPVDPATYGQFYGGD [GELS_HUMAN_465] 0.754
ALGGKAAYRTSPRLK [GELS_HUMAN_651] 1.3
GGQKSFLYSELSNKS [AKAP4_HUMAN_303] 0.623
KQATTNVYQVQTGSE [GIT2_HUMAN_484] 0.633
KDCGSQKYAYFNGCS [GJA1_HUMAN_265] 1.47

target: SHP2 C-SH2 domain E139D; assay: as above; conditions: peptide library: pTyr-Var

Enrichment score, inactive:
ATQDNYVLEVR [PTPRZ1_Y2179_D2178N] 0.869

target: SHP2 C-SH2 domain wild-type; assay: as above; conditions: peptide library: pTyr-Var

Enrichment score, inactive:
ATQDNYVLEVR [PTPRZ1_Y2179_D2178N] 0.808

target: SHP2 N-SH2 domain L43F; assay: as above; conditions: peptide library: pTyr-Var

Enrichment score, inactive:
ATQDNYVLEVR [PTPRZ1_Y2179_D2178N] 0.883

target: SHP2 N-SH2 domain T42A; assay: as above; conditions: peptide library: pTyr-Var

Enrichment score, inactive:
ATQDNYVLEVR [PTPRZ1_Y2179_D2178N] 0.652

target: SHP2 N-SH2 domain T52S; assay: as above; conditions: peptide library: pTyr-Var

Enrichment score, inactive:
ATQDNYVLEVR [PTPRZ1_Y2179_D2178N] 0.747

target: SHP2 N-SH2 domain wild-type; assay: as above; conditions: peptide library: pTyr-Var

Enrichment score, inactive:
ATQDNYVLEVR [PTPRZ1_Y2179_D2178N] 0.889
